# Reference: PubChem BioAssay AID504832 (National Center for Advancing Translational Sciences (NCATS), 2011)
# In all, about 310,000 compounds went through this assay and about 18,000 (5.8%) were called active. Inconclusive means that the source gave no clear call. Such entries were picked first, then a sample of the others. The call rests on the fitted dose curve; in most records, active means well fitted inhibition curve with a large enough effect; inconclusive means small, poorly fitted or top-dose-only effect, or another doubt; inactive means no such curve, though single readings can be large or run the other way. No potency is given beside an inconclusive call; the fits are too rough.
# Test: Primary qHTS for delayed death inhibitors of the malarial parasite plastid, 48 hour incubation
# Conditions: P. falciparum luciferase growth in erythrocytes; series mostly up to 28.7 µM
# Method in brief: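 Growth was read as firefly luciferase luminescence after a 48 h, 37 C, 5% CO2 exposure of compounds to reporter-bearing P. falciparum cultures (0.1% parasitemia, 2% hematocrit final) in Albumax-supplemented RPMI 1640.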
# Potency means the concentration at half of the fitted maximal effect; tags describe the fitted curve by direction and shape.
row,Compound,Potency
1,O=C(C1CCCN1C(=O)c1cccs1)N1CCc2ccccc21 (stereo not given),"inconclusive [inhibitor, partial curve, poor fit]"
2,Cc1cc(Br)ccc1NC(=O)CN1C(=O)C2C3CC(c4ccccc4)C(C3)C2C1=O (stereo not given),"inconclusive [inhibitor, single point]"
3,CN(c1ccccc1C(=O)Nc1ccccc1C(=O)NCc1ccco1)S(C)(=O)=O,"inconclusive [inhibitor, single point]"
4,Clc1ccccc1CN(Cc1ccccc1)C(c1cccs1)c1nnnn1C1CCCC1 (stereo not given),"inconclusive [inhibitor, partial curve, poor fit]"
5,Cc1ccc(C(=O)N2CCCCC2)cc1S(=O)(=O)N1CCCCCC1,"inconclusive [inhibitor, partial curve, poor fit]"
6,COC(=O)N/N=C/c1ccc(-c2cc(Cl)ccc2Cl)o1,"inconclusive [inhibitor, single point]"
7,O=C(Nc1ccc2c(c1)OCO2)C(c1ccc(Cl)cc1)N1CCC2(CC1)OCCO2 (stereo not given),"inconclusive [inhibitor, partial curve, poor fit]"
8,Cn1c(=O)oc2cc(S(=O)(=O)NCCC(=O)N3CCN(c4ccccc4F)CC3)ccc21,"inconclusive [inhibitor, partial curve, poor fit]"
9,CCOc1ccccc1CNC(=O)C1CCN(c2nnc(C)c3c(C)n(-c4ccc(C)cc4)nc23)CC1,"inconclusive [inhibitor, single point]"
10,CC1CC(C)(C)NC(=S)N1CCC(=O)N1CCc2ccccc21 (stereo not given),"inconclusive [inhibitor, partial curve, poor fit]"
11,O=C(C1CCN(S(=O)(=O)c2ccc(-n3cnnn3)cc2)CC1)N1CCN(c2ccccc2)CC1,"inconclusive [inhibitor, single point]"
12,CCOc1cc(/C=C/C(=O)c2ccc3c(c2)OCCO3)ccc1OCC(=O)N(C)C,"inconclusive [inhibitor, single point]"
13,COc1ccc(NC(=S)N=Nc2c(O)[nH]c3ccccc23)cc1,"inconclusive [inhibitor, full curve]"
14,O=C(c1cccc([N+](=O)[O-])c1)c1ccc2c(c1)C(=O)N(c1c[nH]c(=O)[nH]c1=O)C2=O,inactive
15,Cn1c(=S)[nH]c2[nH]c(=O)cnc2c1=O,inactive
16,CCOC(=O)Cc1csc(NC(=O)C(CC(C)C)NC(=O)C2CCCCC2)n1 (stereo not given),"inconclusive [inhibitor, partial curve, poor fit]"
17,Cc1ccc(CN(C)C(=O)c2cc(COc3ccc(F)cc3Cl)on2)o1,active: 0.0928 µM
18,Cc1ccc(C)c(NS(=O)(=O)c2ccc(-c3ccc(=O)[nH]n3)o2)c1,inactive
19,Cc1ccc(S(=O)(=O)NC(=NC2CCCCC2)c2ccc(F)cc2)cc1,inactive
20,CCc1ccc(NC(=O)NCCN2CCc3ccccc3C2)cc1,inactive
21,COCC(=O)N/N=C/c1c(C)[nH]n(-c2ccccc2)c1=O,"inconclusive [inhibitor, partial curve, poor fit]"
22,Nc1nc(-c2cccs2)c(NC(=O)c2ccccc2)s1,"inconclusive [inhibitor, single point]"
23,Cc1cccc(N=N/C(=C\O)C(=O)c2cccs2)c1,"inconclusive [inhibitor, single point]"
24,Cn1cc2cccc([N+](=O)[O-])c2n1,"inconclusive [inhibitor, full curve, poor fit]"

row,Compound,Potency
1,CCOc1ccccc1Oc1nc(-c2ccccc2O)nc2ccccc12,"inconclusive [inhibitor, single point]"
2,CC(C)N(C(=O)COC(=O)[C@H](C)NC(N)=O)c1ccccc1,inactive
3,Cc1cc(C(=O)N2CCCC(N3CCN(c4cccc(C(F)(F)F)c4)CC3)C2)n[nH]1 (stereo not given),"inconclusive [inhibitor, partial curve, poor fit]"
4,COc1ccc(Cl)cc1NC(=O)Nc1ccc(C(=O)N2CCOCC2)cc1,inactive
5,O=C(Nc1ccc(NC(=O)c2ccccc2F)cc1)c1ccccc1F,inactive
6,O=C(CN1CCN(S(=O)(=O)c2ccc3ccccc3c2)CC1)Nc1ccc(N2CCOCC2)cc1,"inconclusive [inhibitor, partial curve, poor fit]"
7,CCCc1cc(=O)[nH]c(SCC(=O)N2CCc3cc(OC)c(OC)cc3C2)n1,"inconclusive [inhibitor, single point]"
8,Nc1nc(NCCc2ccccc2)nc(NCc2ccccc2)c1[N+](=O)[O-],active: 9.28 µM
9,CN(C)CCCN1c2ccccc2Sc2ccc(Cl)cc21,active: 10.4 µM
10,CC1(C)CC(=O)C2=C(C1)OC(N)=C(C#N)C2c1cn(-c2ccccc2)nc1-c1ccc(F)cc1 (stereo not given),inactive
11,Cc1ccccc1NC(=S)N(CCc1c(C)[nH]c2ccc(F)cc12)Cc1ccncc1,"inconclusive [inhibitor, partial curve]"
12,CC(=O)N1CCc2cc(S(=O)(=O)C(C)CC(=O)NCc3ccc(C)o3)ccc21 (stereo not given),inactive
13,COc1ccccc1NS(=O)(=O)c1cccc(NC(=O)Nc2cccc(Cl)c2)c1,"inconclusive [inhibitor, partial curve]"
14,O=C(Nc1nnc(-c2ccco2)o1)c1cccc2ccccc12,inactive
15,O=C(OCCOc1cccc(Cl)c1)c1ccc(F)c(S(=O)(=O)N2CCOCC2)c1,"inconclusive [inhibitor, single point]"
16,COc1ccccc1N1CCN(CC(=O)c2c[nH]c3ccccc23)CC1,"inconclusive [inhibitor, partial curve]"
17,O=C(CCNC(=O)c1ccc(Cl)cc1)NC1CCCCCC1,inactive
18,COc1ccc(-n2c(=O)[nH]cc(C(=O)Nc3ccccc3)c2=O)cc1,inactive
19,COc1cc(CN2CCNC(=O)C2CC(=O)NC2CCCCC2)cc(OC)c1 (stereo not given),"inconclusive [inhibitor, partial curve]"
20,O=C(NC(=S)Nc1ccc2oc(=O)ccc2c1)c1ccco1,inactive
21,Oc1c(Br)cc(Br)cc1/C=N/NC(=S)N[C@H]1CC2C=CC1C2 (stereo not given in full),"inconclusive [inhibitor, full curve, poor fit]"
22,S=C(NCC1CCCO1)N1CCc2ccccc2C1 (stereo not given),inactive
23,CCOc1ccc(S(=O)(=O)N2CCN(C(=O)c3cc(-c4ccccc4)nn3-c3ccccc3)CC2)cc1,"inconclusive [inhibitor, partial curve]"
24,Cc1cc(N2CC(C)OC(C)C2)n2cc(-c3ccccc3)nc2n1 (stereo not given),"inconclusive [inhibitor, single point]"

row,Compound,Potency
1,COc1ccc(NC(=O)CCNC(=O)Cn2ccc3ccccc3c2=O)cc1OC,inactive
2,CCOc1ccccc1N(CC(=O)Nc1ccc2c(c1)OCCO2)S(C)(=O)=O,inactive
3,COc1ccc(C(=O)N(Cc2ccco2)Cc2cccs2)c(O)c1,inactive
4,COc1ccc(C(=O)NC(=S)Nc2cccc3ncccc23)cc1[N+](=O)[O-],"inconclusive [inhibitor, partial curve, poor fit]"
5,Cc1cccc(C)c1OCC(=O)Nc1cccc(NC(=O)c2ccco2)c1,"inconclusive [inhibitor, single point]"
6,O=C(NC(c1ccccc1)c1cc(Cl)c2cccnc2c1O)c1cccnc1 (stereo not given),active: 0.657 µM
7,CCOC(=O)C1=C(C)NC(=O)CC1c1cc(OC)c(OC)cc1Br (stereo not given),active: 0.465 µM
8,Cc1ccc(C2CC(c3ccccc3)n3ncnc3N2)cc1 (stereo not given),inactive
9,N#CCCN1CCCN(CCC#N)CCN(CCC#N)CCCN(CCC#N)CC1,inactive
10,CC(=O)N1CCN(c2nc3cc4c(cc3nc2NS(=O)(=O)c2ccccc2)OCCO4)CC1,"inconclusive [inhibitor, single point]"
11,COc1cc(OC)cc(C(=O)Nc2nc(CC(=O)NCc3ccccc3OC)cs2)c1,"inconclusive [inhibitor, single point]"
12,COCCNC(=O)CNC(=S)N(CCCN1CCOCC1)Cc1cccs1,inactive
13,N#CC1=C(Nc2ccccc2)SC=C(c2ccc(Cl)c(Cl)c2)N=C1N1CCOCC1,active: 13.1 µM
14,O=C1NC(c2cc3ccccc3nc2Cl)Nc2ccccc21 (stereo not given),active: 2.94 µM
15,COc1ccc(-n2nc(C(=O)NCC(=O)NCC3COc4ccccc4O3)c3ccccc3c2=O)cc1 (stereo not given),"inconclusive [inhibitor, single point]"
16,O=C(Cc1cccs1)NCc1ccco1,inactive
17,CCOC(=O)C1CCCCN1C(=O)c1ccc2nc(Cc3ccc(OC)cc3)oc2c1 (stereo not given),"inconclusive [inhibitor, single point]"
18,COc1ccccc1C(=O)NCCC(=O)N1CCN(c2cccc(C(F)(F)F)c2)CC1,"inconclusive [inhibitor, single point]"
19,CCCCC[C@H](O)/C=C\[C@@H]1[C@H](O)CC(=O)[C@@H]1CCCCCCC(=O)O,"inconclusive [inhibitor, single point]"
20,COc1ccccc1C1C2CCCCC2(O)CCN1CC(=O)Nc1ccccc1 (stereo not given),"inconclusive [inhibitor, single point]"
21,COc1ccc(NC(=O)N2CCC(C(=O)c3ccc4c(c3)OCCO4)CC2)cc1,"inconclusive [inhibitor, partial curve, poor fit]"
22,COc1ccc(-c2csc3ncnc(N4CCN(S(=O)(=O)c5cccc(Br)c5)CC4)c23)cc1,"inconclusive [inhibitor, single point]"
